US20170009278A1 (NAVINCI DIAGNOSTICS, published 2017)

Target: T1, HIF-1α (UniProt Q16665 1-826, limits assumed)
T1 construct: Endogenous protein in fixed cells, detected with mouse anti-HIF-1α (Abcam)
Assay: in situ prox-HCR on fixed DLD1 cells treated with CoCl2, two primary antibodies plus anti-mouse and anti-rabbit proximity probes

B1: HIF-1b/ARNT (other, UniProt P27540 2-789, looked up)
chain: AATTANPEMTSDVPSLGPAIASGNSGPGIQGGGAIVQRAIKRRPGLDFDDDGEGNSKFLRCDDDQMSNDKERFARSDDEQSSADKERLARENHSEIERRRRNKMTAYITELSDMVPTCSALARKPDKLTILRMAVSHMKSLRGTGNTSTDGSYKPSFLTDQELKHLILEAADGFLFIVSCETGRVVYVSDSVTPVLNQPQSEWFGSTLYDQVHPDDVDKLREQLSTSENALTGRILDLKTGTVKKEGQQSSMRMCMGSRRSFICRMRCGSSSVDPVSVNRLSFVRNRCRNGLGSVKDGEPHFVVVHCTGYIKAWPPAGVSLPDDDPEAGQGSKFCLVAIGRLQVTSSPNCTDMSNVCQPTEFISRHNIEGIFTFVDHRCVATVGYQPQELLGKNIVEFCHPEDQQLLRDSFQQVVKLKGQVLSVMFRFRSKNQEWLWMRTSSFTFQNPYSDEIEYIICTNTNVKNSSQEPRPTLSNTIQRPQLGPTANLPLEMGSGQLAPRQQQQQTELDMVPGRDGLASYNHSQVVQPVTTTGPEHSKPLEKSDGLFAQDRDPRFSEIYHNINADQSKGISSSTVPATQQLFSQGNTFPPTPRPAENFRNSGLAPPVTIVQPSASAGQMLAQISRHSNPTQGATPTWTPTTRSGFSAQQVATQATAKTRTSQFGVGSFQTPSSFSSMSLPGAPTASPGAAAYPSLTNRGSNFAPETGQTAGQFQTRTAEGVGVWPQWQGQQPHHRSSSSEQHVQQPPAQQPGQPEVFQEMLSMLGDQSNSYNNEEFPDLTMFPPFSE
notes: Endogenous protein in fixed cells, detected with rabbit anti-HIF-1b (Santa Cruz)
**Q.** Does B1 bind?
**A.** binds
